Experimental findings from a collection of fitness landscapes (doi:10.1126/science.1257360) are described below.

Some of the results follow.

The chains are these.
B1: PhoQ; a variant is named by its letters at X, in order, P23837 (parent)
chain: MKKLLRLFFPLSLRVRFLLATAAVVLVLSLAYGMVALIGYSVSFDKTTFRLLRGESNLFYTLAKWENNKLHVELPENIDKQSPTMTLIYDENGQLLWAQRDVPWLMKMIQPDWLKSNGFHEIEADVNDTSLLLSGDHSIQQQLQEVREDDDDAEMTHSVAVNVYPATSRMPKLTIVVVDTIPVELKSSYMVWSWFIYVLSANLLLVIPLLWVAAWWSLRPIEALAKEVRELEEHNRELLNPATTRELTSLVRNLNRLLKSERERYDKYRTTLTDLTHSLKTPLXXLQXXLRSLRSEKMSVSDAEPVMLEQISRISQQIGYYLHRASMRGGTLLSRELHPVAPLLDNLTSALNKVYQRKGVNISLDISPEISFVGEQNDFVEVMGNVLDNACKYCLEFVEISARQTDEHLYIVVEDDGPGIPLSKREVIFDRGQRVDTLRPGQGVGLAVAREITEQYEGKIVAGESMLGGARMEVIFGRQHSAPKDE

The variants in the assay derive from B1. Briefly: enrichment ratio after two sorts for PhoP signalling (ratio (wild type AVST 3.29)); higher = more functional. Particulars: with PhoP (E. coli).
Consider NLRC, for which the enrichment ratio was at most 0.25.
As for YKHF, the figure is at most 0.25; as for YWCC, at most 0.25; as for AFQD, at most 0.25.
As for KPCN, the enrichment ratio was at most 0.25.
As for EQVW, the figure is at most 0.25; as for RGKV, at most 0.25.
For WTVM, the enrichment ratio was at most 0.25.
Take FKLG: the enrichment ratio was at most 0.25.
Turning to KDDK, the enrichment ratio is at most 0.25.
Turning to WVAA, the enrichment ratio is at most 0.25.
The figure for MKGP is at most 0.25; for KHTM it is at most 0.25.
As for FQAW, the figure is at most 0.25; as for FFAK, at most 0.25; as for TAIS, 0.325.
Regarding TINV, the enrichment ratio was 7.66.
For HLRH, the enrichment ratio was at most 0.25.
The figure for QKMC is at most 0.25.
As to ADNR, the enrichment ratio was at most 0.25.
For the variant VSFD, the enrichment ratio is 0.544.
Turning to GWNL, the enrichment ratio was at most 0.25.
WKIG: the enrichment ratio was at most 0.25.
As for LINP, the figure is at most 0.25; as for PTWH, at most 0.25; as for LNQE, at most 0.25.
Regarding NFST, the enrichment ratio was at most 0.25.
For ELTL, the enrichment ratio was at most 0.25.
As for PFMW, the figure is at most 0.25; as for PQAH, at most 0.25; as for DMPR, 2.06.
Consider YHQA, for which the enrichment ratio is at most 0.25.
For the variant PSSN, the enrichment ratio was at most 0.25.
As for FQDT, the figure is at most 0.25; as for FQAV, at most 0.25.
The figure for DTGF is at most 0.25; for MEIK it is at most 0.25; for SGVG it is 5.22.
As for GILK, the enrichment ratio was found to be 5.55.
As for APNQ, the enrichment ratio was at most 0.25.
Consider EKHH, for which the enrichment ratio was at most 0.25.
The figure for ILLS is at most 0.25; for MSKA it is at most 0.25.
The figure for HQEI is at most 0.25; for LGNP it is at most 0.25.
For VINR, the enrichment ratio was at most 0.25.
In the case of FEGQ, the enrichment ratio is at most 0.25.
As for DHKP, the figure is at most 0.25; as for KYVT, at most 0.25.
The figure for TRGC is at most 0.25; for TKTE it is at most 0.25.
As to TGWR, the enrichment ratio was at most 0.25.
As for SGLN, the figure is 10.9.
As for NVQH, the figure is at most 0.25.
The figure for VHNQ is at most 0.25; for YFWP it is at most 0.25; for ARFC it is at most 0.25.
As to GDTS, the enrichment ratio was at most 0.25.
Regarding PLPF, the enrichment ratio is at most 0.25.
With EKFS, the enrichment ratio is at most 0.25.
As for LDCT, the figure is at most 0.25; as for QLHL, 2.28.
The figure for LLNG is at most 0.25.
The figure for DGHY is at most 0.25; for PLQF it is at most 0.25; for LECK it is 1.26.
Regarding RNWR, the enrichment ratio is at most 0.25.
The figure for VEQH is at most 0.25; for IQKA it is at most 0.25; for RVTH it is at most 0.25.
The figure for HAQF is at most 0.25; for GPSR it is at most 0.25; for DMVC it is at most 0.25.
As to TPCN, the enrichment ratio is at most 0.25.
Turning to KGPP, the enrichment ratio was at most 0.25.
As for TQRK, the figure is at most 0.25; as for WLAD, at most 0.25.
SMIT: the enrichment ratio is at most 0.25.
As for GNRW, the figure is at most 0.25; as for NSEP, at most 0.25; as for QYVC, at most 0.25.
As for NWEA, the enrichment ratio was at most 0.25.
As to TIPL, the enrichment ratio was at most 0.25.
Turning to NCSM, the enrichment ratio was at most 0.25.
The figure for IFYT is at most 0.25.
On to SRKD, for which the enrichment ratio was at most 0.25.
With KMHQ, the enrichment ratio was at most 0.25.
The figure for RWPT is at most 0.25; for KPVC it is at most 0.25.
Consider RNLQ, for which the enrichment ratio is at most 0.25.
The figure for LGKC is at most 0.25; for NYPW it is at most 0.25; for ETQY it is at most 0.25.
Turning to TQYF, the enrichment ratio is at most 0.25.
As for ISGD, the figure is at most 0.25; as for ANMW, at most 0.25.
As for HAAA, the figure is at most 0.25; as for FLNF, at most 0.25; as for YWVL, at most 0.25.
For the variant RPYD, the enrichment ratio was at most 0.25.
As for PYKW, the figure is at most 0.25; as for VRYK, at most 0.25.
The figure for LIWI is at most 0.25; for FLLL it is 1.51; for FWNA it is at most 0.25.
With FQYQ, the enrichment ratio is at most 0.25.
The figure for LPLK is at most 0.25; for FSWV it is at most 0.25.
Consider TYRF, for which the enrichment ratio worked out at 0.834.
Regarding YDTW, the enrichment ratio is at most 0.25.
As for ADLP, the figure is at most 0.25.
The figure for DSEW is at most 0.25; for MGKQ it is at most 0.25; for SAEN it is at most 0.25.
As for HKFN, the enrichment ratio was at most 0.25.
As for HYIF, the figure is at most 0.25; as for NRWT, at most 0.25.
With DGTR, the enrichment ratio is at most 0.25.
Consider VEWD, for which the enrichment ratio was at most 0.25.
For HQCL, the enrichment ratio is at most 0.25.
Regarding RSMI, the enrichment ratio was at most 0.25.
As for WTYV, the figure is at most 0.25.
FPWR: the enrichment ratio is at most 0.25.
As for DHMP, the figure is at most 0.25; as for NMFQ, at most 0.25; as for HQRV, at most 0.25.
As for ALLG, the figure is 2.68; as for IYID, at most 0.25.
The figure for SFRY is at most 0.25.
Regarding HDTA, the enrichment ratio was at most 0.25.
Regarding GCYG, the enrichment ratio is at most 0.25.
The figure for LKLA is at most 0.25.
As for MYVA, the figure is at most 0.25; as for KTVM, at most 0.25; as for VQWP, at most 0.25.
Consider IRLF, for which the enrichment ratio is at most 0.25.
On to RAEW, for which the enrichment ratio is at most 0.25.
WLNR: the enrichment ratio was at most 0.25.
For VAQQ, the enrichment ratio is at most 0.25.
As for SHNR, the enrichment ratio was at most 0.25.
As for MLIG, the figure is at most 0.25; as for PPNW, at most 0.25.
As for FIYH, the figure is at most 0.25; as for ASAV, 11.5; as for TAMC, 14.6.
The figure for SVVV is at most 0.25; for ATWI it is at most 0.25; for GEWT it is at most 0.25.
In the case of VLRE, the enrichment ratio was at most 0.25.
As for PARP, the figure is at most 0.25; as for KCTW, at most 0.25; as for KNMT, at most 0.25.
As for NYRA, the figure is at most 0.25.
